{"source": "the supplement of paper PMC3334620", "note": "In all, about 33,000 sequences were measured (“E-score (-0.5 to 0.5)”: median about -0.056, highest 2% from about 0.38 on). Some of the results follow."}
{"target": "Stb4 (UniProt P50104)", "experiment": "PBM E-score (8-mer binding enrichment) (E-score (-0.5 to 0.5)); higher = stronger / more preferred TF binding; most listed sequences are background and not binding sites", "settings": "protein concentration: 200 nM; construct: GST-DNA-binding domain", "method": "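Universal 'all 10-mer' protein binding microarrays (Agilent AMADID 015681) probed with GST-tagged S. cerevisiae TFs (full-length or DBD) made by in vitro transcription/translation (PURExpress), about 100-200 nM. Bound TF was detected with fluorescent anti-GST. Each ungapped 8-mer (which stands for itself and its reverse complement) is scored by the PBM enrichment score (E-score), a modified Wilcoxon-Mann-Whitney statistic from -0.5 to +0.5, computed with the Universal PBM Analysis Suite. Scale: above 0.35 generally sequence-specific binding.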"}
{"sequence": "ATCAGGAA", "PBM E-score": -0.127}
{"sequence": "CTGTGACA", "PBM E-score": -0.19}
{"sequence": "AACATCTG", "PBM E-score": -0.189}
{"sequence": "AATCTTCT", "PBM E-score": 0.00884}
{"sequence": "AGAATCCG", "PBM E-score": 0.27}
{"sequence": "TCGGGAGA", "PBM E-score": 0.391}
{"sequence": "ATGCCCCA", "PBM E-score": -0.164}
{"sequence": "CGACTAGC", "PBM E-score": -0.0065}
{"sequence": "AGACACGG", "PBM E-score": 0.218}
{"sequence": "CTGTCTTA", "PBM E-score": -0.083}
{"sequence": "CAAGGAGG", "PBM E-score": -0.21}
{"sequence": "ACATTTTG", "PBM E-score": -0.215}
{"sequence": "ACAGAAGA", "PBM E-score": -0.0571}
{"sequence": "GTACGCTA", "PBM E-score": -0.0491}
{"sequence": "CCACAAAG", "PBM E-score": -0.044}
{"sequence": "CCGAATAA", "PBM E-score": 0.381}
{"sequence": "ACCCACAT", "PBM E-score": -0.0222}
{"sequence": "ACGGTGTG", "PBM E-score": -0.0716}
{"sequence": "CAACAACC", "PBM E-score": 0.188}
{"sequence": "CCTCTGAC", "PBM E-score": -0.145}
{"sequence": "CTAAGTTA", "PBM E-score": -0.283}
{"sequence": "AAGATCAT", "PBM E-score": -0.0799}
{"sequence": "CGAGCCAC", "PBM E-score": 0.0242}
{"sequence": "TCCTCAGA", "PBM E-score": -0.046}
{"sequence": "CGCGCAAG", "PBM E-score": -0.0507}
{"sequence": "GGCTCAAC", "PBM E-score": -0.0941}
{"sequence": "TGTGCAAA", "PBM E-score": -0.317}
{"sequence": "CATATCTA", "PBM E-score": -0.0538}
{"sequence": "CCGAAATC", "PBM E-score": 0.405}
{"sequence": "CGTCTTAC", "PBM E-score": -0.0366}
{"sequence": "CCCTTACG", "PBM E-score": -0.16}
{"sequence": "AGCGGGTA", "PBM E-score": 0.216}
{"sequence": "CGTCTCCC", "PBM E-score": 0.071}
{"sequence": "AACACGCA", "PBM E-score": -0.12}
{"sequence": "AGTACAAT", "PBM E-score": -0.081}
{"sequence": "GCATGCGC", "PBM E-score": -0.0497}
{"sequence": "AGACTTGA", "PBM E-score": -0.0711}
{"sequence": "TGTTGGAA", "PBM E-score": -0.201}
{"sequence": "CATGCCCC", "PBM E-score": -0.00979}
{"sequence": "AGCAGATC", "PBM E-score": -0.29}
{"sequence": "ATATTTGC", "PBM E-score": -0.0351}
{"sequence": "ATCGCAGG", "PBM E-score": -0.279}
{"sequence": "GAGCGTGC", "PBM E-score": 0.123}
{"sequence": "AGACGCAA", "PBM E-score": -0.0774}
{"sequence": "AAATAACG", "PBM E-score": -0.0138}
{"sequence": "GCAGAGGC", "PBM E-score": -0.0743}
{"sequence": "CGGGCGAG", "PBM E-score": 0.184}
{"sequence": "ATCGCCTG", "PBM E-score": -0.1}
{"sequence": "GGGCAGAA", "PBM E-score": 0.0693}
{"sequence": "GGATTCTA", "PBM E-score": 0.0237}
{"sequence": "ATTGAGAC", "PBM E-score": -0.0589}
{"sequence": "CACTTTAG", "PBM E-score": -0.0412}
{"sequence": "GGATGTAA", "PBM E-score": 0.245}
{"sequence": "ATCTGTTC", "PBM E-score": 0.081}
{"sequence": "CTCGTAGC", "PBM E-score": -0.133}
{"sequence": "AGCGAGGA", "PBM E-score": -0.0315}
{"sequence": "CCGGGCGC", "PBM E-score": 0.22}
{"sequence": "CATGAAAG", "PBM E-score": -0.00301}
{"sequence": "CATACGGA", "PBM E-score": 0.288}
{"sequence": "AGGGCAAA", "PBM E-score": 0.0511}
{"sequence": "ATGTGTTC", "PBM E-score": 0.059}
{"sequence": "GCGCAAAC", "PBM E-score": -0.0362}
{"sequence": "GCTGCAAC", "PBM E-score": -0.0315}
{"sequence": "GCCAGCAC", "PBM E-score": -0.106}
{"sequence": "GTTAGGAA", "PBM E-score": -0.068}
{"sequence": "TCCGGAAA", "PBM E-score": 0.439}
{"sequence": "TCGACGAA", "PBM E-score": -0.075}
{"sequence": "CGCACCCG", "PBM E-score": 0.339}
{"sequence": "CACATGAG", "PBM E-score": -0.349}
{"sequence": "ATGCCCGC", "PBM E-score": 0.175}
{"sequence": "TAGACGCA", "PBM E-score": -0.251}
{"sequence": "ACTTAAAC", "PBM E-score": -0.0926}
{"sequence": "CAACTACC", "PBM E-score": 0.0365}
{"sequence": "CGAGCGCA", "PBM E-score": 0.205}
{"sequence": "AAATATAA", "PBM E-score": 0.0326}
{"sequence": "CCACGAGG", "PBM E-score": -0.0952}
{"sequence": "CTGTCCAC", "PBM E-score": -0.0305}
{"sequence": "ACTACAGC", "PBM E-score": -0.0939}
{"sequence": "CCGGGCGA", "PBM E-score": 0.183}
{"sequence": "GCATAATA", "PBM E-score": 0.00318}
{"sequence": "AGGACGGA", "PBM E-score": 0.256}
{"sequence": "AAGCAGGG", "PBM E-score": -0.0512}
{"sequence": "AAACCGAG", "PBM E-score": 0.332}
{"sequence": "ATGACACG", "PBM E-score": 0.155}
{"sequence": "AGCGTCGC", "PBM E-score": -0.13}
{"sequence": "ACAATTTG", "PBM E-score": -0.222}
{"sequence": "AAACTGTA", "PBM E-score": -0.176}
{"sequence": "GGTGGGGA", "PBM E-score": 0.0872}
{"sequence": "CACTAAAC", "PBM E-score": -0.0976}
{"sequence": "AAACGGCG", "PBM E-score": -0.0798}
{"sequence": "AGTGTAAT", "PBM E-score": -0.0675}
{"sequence": "CCCCTACC", "PBM E-score": -0.0793}
{"sequence": "ACAAAAAG", "PBM E-score": 0.0516}
{"sequence": "ATGCTGAC", "PBM E-score": -0.113}
{"sequence": "GAAGTAGA", "PBM E-score": -0.0217}
{"sequence": "ACAAGCAT", "PBM E-score": -0.0413}
{"sequence": "AGCCACAG", "PBM E-score": -0.133}
{"sequence": "TCACTGCA", "PBM E-score": -0.132}
{"sequence": "TAAACGGA", "PBM E-score": 0.208}
{"sequence": "CGATGCTC", "PBM E-score": 0.152}
{"sequence": "CTTACTGA", "PBM E-score": -0.158}
{"sequence": "CGTTATGC", "PBM E-score": -0.258}
{"sequence": "ACTTTGTA", "PBM E-score": -0.0912}
{"sequence": "CGGCCTAC", "PBM E-score": 0.0488}
{"sequence": "ATCTACAC", "PBM E-score": -0.127}
{"sequence": "CCCGATAG", "PBM E-score": 0.223}
{"sequence": "CAATTCCA", "PBM E-score": -0.0908}
{"sequence": "CGGCTCGC", "PBM E-score": 0.236}
{"sequence": "CATTGAAG", "PBM E-score": -0.222}
{"sequence": "TTAGCGAA", "PBM E-score": -0.0888}
{"sequence": "CAGCAAAC", "PBM E-score": -0.0207}
{"sequence": "GATATGTA", "PBM E-score": -0.0273}
{"sequence": "CCCTACTA", "PBM E-score": -0.0809}
{"sequence": "CGATACGA", "PBM E-score": -0.0283}
{"sequence": "ACTTTTAT", "PBM E-score": -0.0929}
{"sequence": "ATCATTTG", "PBM E-score": -0.0566}
{"sequence": "GGGTAATA", "PBM E-score": 0.246}
{"sequence": "TGGGTACA", "PBM E-score": 0.0508}
{"sequence": "TAGCGTGA", "PBM E-score": -0.23}
{"sequence": "AATAAGAT", "PBM E-score": -0.15}
{"sequence": "AAATTACT", "PBM E-score": -0.0027}
{"sequence": "CTGAATTA", "PBM E-score": -0.0801}
{"sequence": "CTGCTAGC", "PBM E-score": -0.23}
{"sequence": "AGCGCAAT", "PBM E-score": -0.0399}
{"sequence": "AACTCTGA", "PBM E-score": 0.11}
{"sequence": "AGATCTTG", "PBM E-score": -0.197}
{"sequence": "ACTAGGAC", "PBM E-score": -0.0716}
{"sequence": "GAAAGTGA", "PBM E-score": -0.0866}
{"sequence": "AACCAGAA", "PBM E-score": -0.0712}
{"sequence": "CCGACCAC", "PBM E-score": 0.283}
{"sequence": "CAGAAAGC", "PBM E-score": -0.131}
{"sequence": "GGTTTAAA", "PBM E-score": -0.0459}
{"sequence": "ACGTCGAA", "PBM E-score": -0.143}
{"sequence": "AAGTCCGT", "PBM E-score": 0.187}
{"sequence": "GTGCACAA", "PBM E-score": 0.0485}
{"sequence": "AGTACCGC", "PBM E-score": 0.0715}
{"sequence": "ATGGTCGG", "PBM E-score": 0.291}
{"sequence": "ATTGTCTG", "PBM E-score": -0.0452}
{"sequence": "CTGCACTA", "PBM E-score": -0.0514}
{"sequence": "AGGCATAA", "PBM E-score": -0.134}
{"sequence": "CAATATAG", "PBM E-score": -0.0585}
{"sequence": "TCAAGTGA", "PBM E-score": -0.245}
{"sequence": "CTACGGGC", "PBM E-score": -0.0551}
{"sequence": "CAATGCGC", "PBM E-score": -0.0287}
{"sequence": "TGGGAAAA", "PBM E-score": -0.158}
{"sequence": "TCTCAGAA", "PBM E-score": -0.227}
{"sequence": "AATATTGA", "PBM E-score": -0.0636}
{"sequence": "AAGCATTA", "PBM E-score": -0.0324}
{"sequence": "CTGGGGAA", "PBM E-score": -0.341}
{"sequence": "AGAACCTC", "PBM E-score": -0.0283}
{"sequence": "TAATTGTA", "PBM E-score": 0.126}
{"sequence": "CCGTAGCG", "PBM E-score": 0.155}
{"sequence": "ATCATCAC", "PBM E-score": -0.266}
{"sequence": "ACACCGTA", "PBM E-score": -0.0233}
{"sequence": "ACTTCGCA", "PBM E-score": -0.156}
{"sequence": "CAGGTAGC", "PBM E-score": -0.0418}
{"sequence": "CCTCATCC", "PBM E-score": -0.036}
{"sequence": "GAATTCGC", "PBM E-score": 0.114}
{"sequence": "ATGCTCCA", "PBM E-score": -0.06}
{"sequence": "CGACGCCG", "PBM E-score": 0.255}
{"sequence": "AAAAGAGG", "PBM E-score": -0.165}
{"sequence": "CAATCTCG", "PBM E-score": 0.165}
{"sequence": "GACGTATC", "PBM E-score": -0.0654}
{"sequence": "AAGGACGA", "PBM E-score": -0.165}
{"sequence": "AGGTATAC", "PBM E-score": -0.111}
{"sequence": "ACCGGGCC", "PBM E-score": 0.214}
{"sequence": "ACCGACAC", "PBM E-score": 0.258}
{"sequence": "GCTTTGAC", "PBM E-score": 0.139}
{"sequence": "TAGTAGGA", "PBM E-score": -0.0566}
{"sequence": "TCCAACAA", "PBM E-score": -0.219}
{"sequence": "ACTAACAA", "PBM E-score": -0.174}
{"sequence": "GACGTGCA", "PBM E-score": -0.075}
